Measurements published in patent US20240124614A1.
Changes are numbered by the printed parent chain.

B1: hT4VL.FRv40563 (antibody, human IgG1, kappa)
heavy: EVQLVESGGGLVQPGGSLRLSCAASGYTFTSYVMHWVRQAPGKGLEWVSAINPYNDGNYYADSVKGRFTISRDNSRKTLYLQMNSLRAEDTAVYYCARGAYKRGYAMDYWGQGTTVTVSSASTKGPSVFPLAPSSKSTSGGTAALGCLVKDYFPEPVTVSWNSGALTSGVHTFPAVLQSSGLYSLSSVVTVPSSSLGTQTYICNVNHKPSNTKVDKKV[human IgG1 Fc not given here]GSGGGSVTGYRLFEEIL
light: DIQMTQSPSSLSASVGDRVTITCKSSQSLFNDKTRKNYLAWYQQKPGKAPKLLIYWASTRESGVPARFSGSGSGTDFTLTISSLEPEDFAVYYCQQFYYQMYTFGQGTKVEIKRTVAAPSVFIFPPSDEQLKSGTASVVCLLNNFYPREAKVQWKVDNALQSGNSQESVTEQDSKDSTYSLSSTLTLSKADYEKHKVYACEVTHQGLSSPVTKSFNRGEC
B2: hT4VL.FRv40569 (antibody, human IgG1, kappa)
heavy: B1 heavy
light: B1 light with W56A
B3: hT4VL.FRv40573 (antibody, human IgG1, kappa)
heavy: B1 heavy
light: B1 light with W56G
B4: hT4VL.FRv40575 (antibody, human IgG1, kappa)
heavy: B1 heavy
light: B1 light with W56I
B5: hT4VL.FRv40584 (antibody, human IgG1, kappa)
heavy: B1 heavy
light: B1 light with W56T
B6: hT4VL.FRv40585 (antibody, human IgG1, kappa)
heavy: B1 heavy
light: B1 light with W56V
B7: hT4VL.FRv40608 (antibody, human IgG1, kappa)
heavy: B1 heavy
light: B1 light with S58F
B8: hT4VL.FRv40611 (antibody, human IgG1, kappa)
heavy: B1 heavy
light: B1 light with S58I
B9: hT4VL.FRv40633 (antibody, human IgG1, kappa)
heavy: B1 heavy
light: B1 light with T59N
B10: hT4VL.FRv40640 (antibody, human IgG1, kappa)
heavy: B1 heavy
light: B1 light with T59Y
B11: hT4VL.FRv40648 (antibody, human IgG1, kappa)
heavy: B1 heavy
light: B1 light with R60K
B12: hT4VL.FRv40696 (antibody, human IgG1, kappa)
heavy: B1 heavy
light: B1 light with W56I, S58F
B13: hT4VL.FRv40697 (antibody, human IgG1, kappa)
heavy: B1 heavy
light: B1 light with W56I, T59N
B14: hT4VL.FRv40698 (antibody, human IgG1, kappa)
heavy: B1 heavy
light: B1 light with W56I, R60V

Molecular target: ECM (extracellular matrix)
Experiment: ECL plate assay on coated ECM (Matrigel), antibody 3 ug/mL, pH 7.4

Binder	ECM binding vs Control Ab (pH 7.4) (ratio vs Control Ab)
B1	3.64
B2	2.7
B3	3.13
B4	3.83
B5	3.46
B6	3.64
B7	3.91
B8	3.66
B9	4.08
B10	5.01
B11	3.12
B12	3.98
B13	4.4
B14	2.23

Molecular target: ECM (extracellular matrix)
Experiment: as above
Remark: another data set of the same source

Binder	ECM binding vs Control Ab (pH 7.4) (ratio vs Control Ab)
B1	3.01

Molecular target: ECM (extracellular matrix)
Experiment: ECL plate assay on coated ECM (Matrigel), antibody 3 ug/mL, pH 5.8

Binder	ECM binding vs Control Ab (pH 5.8) (ratio vs Control Ab)
B1	16
B2	23
B3	20.9
B4	19
B5	24.1
B6	21.4
B7	17.8
B8	19.3
B9	18.7
B10	22.4
B11	13.4
B12	18
B13	16.8
B14	8.6

Molecular target: ECM (extracellular matrix)
Experiment: as above
Remark: another data set of the same source

Binder	ECM binding vs Control Ab (pH 5.8) (ratio vs Control Ab)
B1	25.1
